Some of the results follow. Values were computed here from the reads of four pooled replicates and scatter widely.
These sequences were tested against T1, Pho4 (S. cerevisiae) (UniProt P07270) (assay: relative binding free energy (BET-seq); higher = weaker binding). Settings: reference: library average.
T1 sequence: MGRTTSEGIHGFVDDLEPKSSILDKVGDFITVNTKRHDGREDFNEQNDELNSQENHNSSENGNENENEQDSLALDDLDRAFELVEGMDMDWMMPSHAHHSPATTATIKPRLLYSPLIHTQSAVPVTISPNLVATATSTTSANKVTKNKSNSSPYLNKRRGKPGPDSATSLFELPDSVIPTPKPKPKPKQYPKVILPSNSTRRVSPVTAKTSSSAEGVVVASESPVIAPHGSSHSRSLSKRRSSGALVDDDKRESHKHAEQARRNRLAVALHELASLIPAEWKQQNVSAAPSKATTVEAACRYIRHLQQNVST

For GATAGCACGTGTAGAT, which “relative binding free energy” value is on record?
The value was 0.31 kcal/mol.

How did the “relative binding free energy” value turn out when CTTATCACGTGAGGTT was run?
The value was 0.42 kcal/mol.

For AATATCACGTGTGGGG, which “relative binding free energy” value is on record?
Its value is 0.14 kcal/mol.

GCGTTCACGTGCGGTG was tested. Which “relative binding free energy” value did it give?
The value was 0.16 kcal/mol.

How did the “relative binding free energy” value turn out when CGGGTCACGTGGATCA was run?
Its value is 0.18 kcal/mol.

With GGCGTCACGTGGTCGG as the sequence, how does the “relative binding free energy” value read?
The value was 0.18 kcal/mol.

Which “relative binding free energy” value does the source give for GGTCACACGTGGGCGC here?
Its value is 0.15 kcal/mol.

For AGTGGCACGTGGTCAG, which “relative binding free energy” value is on record?
The value was -0.3 kcal/mol.

Which “relative binding free energy” value does the source give for ATGCGCACGTGTTAAG here?
Its value is 0.09 kcal/mol.

GTTGCCACGTGGCGTT was tested. Which “relative binding free energy” value did it give?
The value was -0.18 kcal/mol.

Which “relative binding free energy” value does the source give for AGACTCACGTGTGGGT here?
The value was 0.14 kcal/mol.

Which “relative binding free energy” value does the source give for TAGGGCACGTGTATGG here?
Its value is -0.03 kcal/mol.

For TGTTACACGTGATATA, which “relative binding free energy” value is on record?
Its value is 0.06 kcal/mol.

Which “relative binding free energy” value does the source give for AAGGTCACGTGTCTTG here?
Its value is 0.16 kcal/mol.

Which “relative binding free energy” value does the source give for GGTGCCACGTGGTAGG here?
Its value is -0.18 kcal/mol.

Which “relative binding free energy” value does the source give for TCTTGCACGTGTGAGA here?
The value was 0.06 kcal/mol.

ATGCTCACGTGTGTAA was tested. Which “relative binding free energy” value did it give?
Its value is 0.15 kcal/mol.

TGGGTCACGTGGTATT was tested. Which “relative binding free energy” value did it give?
Its value is 0.06 kcal/mol.

Which “relative binding free energy” value does the source give for AGAGTCACGTGCGTAT here?
The value was 0.13 kcal/mol.

Which “relative binding free energy” value does the source give for AGAGGCACGTGGGTCT here?
Its value is -0.14 kcal/mol.

How did the “relative binding free energy” value turn out when TGTTTCACGTGGCTCG was run?
The value was 0.26 kcal/mol.

GAGCGCACGTGAGGTT was tested. Which “relative binding free energy” value did it give?
The value was 0.19 kcal/mol.

For GTATGCACGTGGAGAT, which “relative binding free energy” value is on record?
Its value is -0.02 kcal/mol.

GGTGGCACGTGAAATT was tested. Which “relative binding free energy” value did it give?
The value was 0.26 kcal/mol.

Which “relative binding free energy” value does the source give for GAGGACACGTGTGGGC here?
The value was 0.09 kcal/mol.

Which “relative binding free energy” value does the source give for TAGGACACGTGAGTGA here?
Its value is 0.14 kcal/mol.

For ATAGCCACGTGGGAGT, which “relative binding free energy” value is on record?
Its value is -0.2 kcal/mol.

For GTGGCCACGTGCGTTG, which “relative binding free energy” value is on record?
Its value is -0.17 kcal/mol.

With TTTTGCACGTGACATT as the sequence, how does the “relative binding free energy” value read?
Its value is 0.14 kcal/mol.

Which “relative binding free energy” value does the source give for TGTGGCACGTGTTCGG here?
The value was -0.07 kcal/mol.

Which “relative binding free energy” value does the source give for TAGCTCACGTGTTCGT here?
The value was 0.24 kcal/mol.

How did the “relative binding free energy” value turn out when TACGTCACGTGGTCAT was run?
The value was 0.1 kcal/mol.

With TTCTGCACGTGGCGGA as the sequence, how does the “relative binding free energy” value read?
The value was -0.11 kcal/mol.

For TACATCACGTGGGGAT, which “relative binding free energy” value is on record?
Its value is 0.02 kcal/mol.

With TATGGCACGTGTTTGC as the sequence, how does the “relative binding free energy” value read?
Its value is -0.11 kcal/mol.

With TGAAACACGTGGTTGG as the sequence, how does the “relative binding free energy” value read?
The value was -0.01 kcal/mol.

How did the “relative binding free energy” value turn out when TAAGGCACGTGTGTAA was run?
Its value is -0.12 kcal/mol.

AAAGACACGTGGATGG was tested. Which “relative binding free energy” value did it give?
Its value is 0 kcal/mol.

With TTGGGCACGTGAGCGC as the sequence, how does the “relative binding free energy” value read?
Its value is -0.02 kcal/mol.

Which “relative binding free energy” value does the source give for GGGGGCACGTGCTGCA here?
Its value is -0.24 kcal/mol.

With GGTGACACGTGTGGCG as the sequence, how does the “relative binding free energy” value read?
The value was 0.14 kcal/mol.

With CTTGACACGTGTCGTG as the sequence, how does the “relative binding free energy” value read?
The value was -0.01 kcal/mol.

How did the “relative binding free energy” value turn out when TCGTACACGTGTGGAT was run?
Its value is 0.16 kcal/mol.

GGGTTCACGTGAGCCG was tested. Which “relative binding free energy” value did it give?
Its value is 0.36 kcal/mol.

Which “relative binding free energy” value does the source give for GCATGCACGTGGAGGA here?
The value was 0.11 kcal/mol.

With GTTAGCACGTGGTTGA as the sequence, how does the “relative binding free energy” value read?
The value was -0.16 kcal/mol.

For GGCTGCACGTGTGTTT, which “relative binding free energy” value is on record?
The value was 0.18 kcal/mol.

How did the “relative binding free energy” value turn out when TGAGCCACGTGTGTGT was run?
The value was -0.11 kcal/mol.

GGTGGCACGTGGCCTG was tested. Which “relative binding free energy” value did it give?
The value was -0.17 kcal/mol.

How did the “relative binding free energy” value turn out when TGGCACACGTGGGATT was run?
The value was 0.03 kcal/mol.

How did the “relative binding free energy” value turn out when CTAGTCACGTGTTTAT was run?
Its value is 0.07 kcal/mol.

TTTCACACGTGTTAGG was tested. Which “relative binding free energy” value did it give?
Its value is 0.09 kcal/mol.

Which “relative binding free energy” value does the source give for AGGGGCACGTGCGTTG here?
The value was -0.25 kcal/mol.

AGAGACACGTGTTTGG was tested. Which “relative binding free energy” value did it give?
The value was 0.06 kcal/mol.

For AGTATCACGTGGAGTG, which “relative binding free energy” value is on record?
The value was 0.24 kcal/mol.

With GTAGTCACGTGTGTAA as the sequence, how does the “relative binding free energy” value read?
The value was 0.04 kcal/mol.

With ATGATCACGTGGGGTC as the sequence, how does the “relative binding free energy” value read?
Its value is -0.05 kcal/mol.

For TTCTACACGTGATTAT, which “relative binding free energy” value is on record?
Its value is 0.35 kcal/mol.

With ATGAACACGTGGGGTG as the sequence, how does the “relative binding free energy” value read?
The value was -0.13 kcal/mol.

TTGGGCACGTGGTCTA was tested. Which “relative binding free energy” value did it give?
The value was -0.22 kcal/mol.

With AGGCGCACGTGTATGT as the sequence, how does the “relative binding free energy” value read?
Its value is -0.11 kcal/mol.

With TATTTCACGTGGTGGC as the sequence, how does the “relative binding free energy” value read?
Its value is 0.28 kcal/mol.

TTGATCACGTGTGCGG was tested. Which “relative binding free energy” value did it give?
The value was 0.21 kcal/mol.

Which “relative binding free energy” value does the source give for TAATTCACGTGGGTCG here?
The value was 0.04 kcal/mol.

With GAGTGCACGTGGGGTT as the sequence, how does the “relative binding free energy” value read?
The value was -0.12 kcal/mol.

With TGAAGCACGTGATGGG as the sequence, how does the “relative binding free energy” value read?
Its value is 0.12 kcal/mol.

With CGCAGCACGTGGTGGA as the sequence, how does the “relative binding free energy” value read?
Its value is -0.07 kcal/mol.

TGGTGCACGTGAGTAG was tested. Which “relative binding free energy” value did it give?
Its value is 0.14 kcal/mol.

How did the “relative binding free energy” value turn out when GGTAACACGTGTAGTT was run?
The value was 0.02 kcal/mol.

AGTTACACGTGTATAG was tested. Which “relative binding free energy” value did it give?
The value was 0.13 kcal/mol.

With CGGGCCACGTGTAGGG as the sequence, how does the “relative binding free energy” value read?
Its value is -0.01 kcal/mol.

Which “relative binding free energy” value does the source give for CTGTGCACGTGGGTAT here?
The value was -0.12 kcal/mol.

With ATCGGCACGTGGTATA as the sequence, how does the “relative binding free energy” value read?
The value was -0.14 kcal/mol.

AAGTACACGTGATTGT was tested. Which “relative binding free energy” value did it give?
The value was 0.21 kcal/mol.

Which “relative binding free energy” value does the source give for GTTGCCACGTGGGGTG here?
The value was -0.11 kcal/mol.

AGTAGCACGTGTTGTC was tested. Which “relative binding free energy” value did it give?
Its value is -0.1 kcal/mol.

Which “relative binding free energy” value does the source give for AGTTACACGTGGGTAG here?
Its value is -0.15 kcal/mol.

For CTAGTCACGTGGGGTA, which “relative binding free energy” value is on record?
Its value is 0.02 kcal/mol.

With TTGGTCACGTGGATGA as the sequence, how does the “relative binding free energy” value read?
Its value is 0.19 kcal/mol.

How did the “relative binding free energy” value turn out when AAGGTCACGTGGGTCT was run?
The value was 0.02 kcal/mol.

TGTATCACGTGGTCGT was tested. Which “relative binding free energy” value did it give?
The value was -0.04 kcal/mol.

How did the “relative binding free energy” value turn out when TGGATCACGTGGGATT was run?
Its value is 0 kcal/mol.

Which “relative binding free energy” value does the source give for TTGGGCACGTGCATAT here?
The value was -0.26 kcal/mol.

Which “relative binding free energy” value does the source give for TTATACACGTGAGTGG here?
Its value is 0.22 kcal/mol.

How did the “relative binding free energy” value turn out when TGCGTCACGTGTATTT was run?
Its value is 0.08 kcal/mol.

For TGCCACACGTGTGGGG, which “relative binding free energy” value is on record?
Its value is 0.12 kcal/mol.

Which “relative binding free energy” value does the source give for ATTTGCACGTGTGATA here?
Its value is 0.08 kcal/mol.

Which “relative binding free energy” value does the source give for GGCTGCACGTGGGGTG here?
The value was -0.15 kcal/mol.

Which “relative binding free energy” value does the source give for TTGAGCACGTGTTCAT here?
Its value is -0.11 kcal/mol.

Which “relative binding free energy” value does the source give for TGTATCACGTGATTGA here?
The value was 0.28 kcal/mol.

With GGGTTCACGTGATCAT as the sequence, how does the “relative binding free energy” value read?
The value was 0.38 kcal/mol.

How did the “relative binding free energy” value turn out when GGGGTCACGTGCAGGG was run?
The value was 0.18 kcal/mol.

Which “relative binding free energy” value does the source give for AGGAGCACGTGCTTGG here?
The value was -0.2 kcal/mol.

ACGGGCACGTGGGGGC was tested. Which “relative binding free energy” value did it give?
Its value is -0.3 kcal/mol.

With TGCGGCACGTGTCTGT as the sequence, how does the “relative binding free energy” value read?
The value was -0.17 kcal/mol.

GGCGGCACGTGCTCGG was tested. Which “relative binding free energy” value did it give?
The value was -0.07 kcal/mol.

AATTTCACGTGCTAGG was tested. Which “relative binding free energy” value did it give?
The value was 0.24 kcal/mol.

How did the “relative binding free energy” value turn out when CGGTTCACGTGTAGGG was run?
The value was 0.25 kcal/mol.

GGGACCACGTGAGGAT was tested. Which “relative binding free energy” value did it give?
Its value is 0.65 kcal/mol.

For GTTGGCACGTGTTATC, which “relative binding free energy” value is on record?
Its value is -0.02 kcal/mol.

For CTTGCCACGTGGGGGA, which “relative binding free energy” value is on record?
Its value is -0.3 kcal/mol.

ATATGCACGTGTTCTT was tested. Which “relative binding free energy” value did it give?
Its value is -0.21 kcal/mol.

TTGAACACGTGGGTTA was tested. Which “relative binding free energy” value did it give?
Its value is -0.05 kcal/mol.

For TAAGGCACGTGGTTAC, which “relative binding free energy” value is on record?
Its value is -0.07 kcal/mol.

AGAGGCACGTGCTGTG was tested. Which “relative binding free energy” value did it give?
Its value is -0.19 kcal/mol.

With TGTGCCACGTGACGTG as the sequence, how does the “relative binding free energy” value read?
Its value is 0.04 kcal/mol.

TGCATCACGTGTTGGT was tested. Which “relative binding free energy” value did it give?
The value was 0.14 kcal/mol.

How did the “relative binding free energy” value turn out when TTTAGCACGTGCGGAT was run?
Its value is -0.05 kcal/mol.

For GAGAACACGTGAGGGG, which “relative binding free energy” value is on record?
The value was 0.42 kcal/mol.

AGTATCACGTGTTAGA was tested. Which “relative binding free energy” value did it give?
Its value is 0.19 kcal/mol.

With TTAGACACGTGGGATG as the sequence, how does the “relative binding free energy” value read?
The value was -0.15 kcal/mol.

For GGTCGCACGTGAGCGT, which “relative binding free energy” value is on record?
The value was 0.27 kcal/mol.

For TTTGCCACGTGTAATT, which “relative binding free energy” value is on record?
Its value is -0.04 kcal/mol.

For ATTCGCACGTGGGAGT, which “relative binding free energy” value is on record?
The value was -0.13 kcal/mol.

For CGTATCACGTGTGGCT, which “relative binding free energy” value is on record?
The value was 0.18 kcal/mol.

Reference: the BET-seq Pho4 binding data (Le et al. 2018)
